Consider 27 compounds from the antibiotic and cytotoxicity screens of Wong et al. (2023).

The structures appear in SMILES notation. Some of the results follow.

One assay relates to HSkMC. Nature of the assay: cytotoxicity call (relative viability < 0.9). The settings on record: 10 µM.
The subject of a further assay is HepG2. As to the kind of experiment: cytotoxicity call (relative viability < 0.9). Particulars: 10 µM.
Another assay concerns S. aureus RN4220. Nature of the assay: growth inhibition call (relative growth <= 0.2). Particulars: 50 µM.

For the compound `Cc1cc(C)cc(OCC2CNC(=O)O2)c1` (stereo unspecified), the cytotoxicity call in the assay on HSkMC and with HepG2 was “inactive” each time. In addition, in the assay on S. aureus RN4220, the growth inhibition call was “inactive”.
For `NCC(=O)N1C[C@H](NC(=O)c2ccccc2)C[C@H]1C(=O)O`, the cytotoxicity call in the assay with HSkMC and with HepG2 was “inactive” in each case. Further, the growth inhibition call with S. aureus RN4220 is “inactive”.
Regarding `C[C@@H]1CN([C@@H](C)CO)C(=O)c2c(c3ccccc3n2C)-c2ccccc2CO[C@H]1CN(C)C(=O)N[C@H](C)c1ccccc1`, the cytotoxicity call in the assay on HSkMC and in the assay on HepG2 was “inactive” each time. In the assay with S. aureus RN4220, the growth inhibition call is “inactive”.
With `C[C@@H]1CN([C@H](C)CO)C(=O)c2cc(NS(C)(=O)=O)ccc2O[C@@H](C)CCCCO[C@H]1CN(C)Cc1ccncc1`, the cytotoxicity call in the assay with HSkMC and with HepG2 was “inactive” each time. Besides, the growth inhibition call in the assay with S. aureus RN4220 is “inactive”.
Turning to `C[C@H]1CN([C@@H](C)CO)C(=O)Cc2cc(NC(=O)CCN3CCOCC3)ccc2O[C@@H]1CN(C)Cc1ccc2c(c1)OCO2`, the cytotoxicity call in the assay with HSkMC and in the assay on HepG2 was “inactive” throughout. For the same compound, in the assay on S. aureus RN4220, the growth inhibition call was “inactive”.
In the case of `CC(C)NC(=O)N(C)C[C@@H]1OCCCC[C@@H](C)Oc2ccc(NS(C)(=O)=O)cc2C(=O)N([C@H](C)CO)C[C@@H]1C`, the cytotoxicity call in the assay on HSkMC and in the assay with HepG2 was “inactive” in each case. In addition, the growth inhibition call with S. aureus RN4220 was “inactive”.
For the compound `CC(C)c1cc(=O)n2nc(N)nc2[nH]1`, the cytotoxicity call in the assay on HSkMC and with HepG2 was “inactive” each time. In addition, the growth inhibition call with S. aureus RN4220 is “inactive”.
For the compound `CN1CCN(C(=O)[C@@H]2[C@@H](CO)[C@@H]3Cn4c(ccc(C5=CCCC5)c4=O)[C@H]2N3S(C)(=O)=O)CC1`, the cytotoxicity call in the assay with HSkMC and in the assay with HepG2 was “inactive” each time. The growth inhibition call in the assay on S. aureus RN4220 was “inactive”.
Turning to `CO[C@@H]1CN(C)C(=O)c2ccc(NC(=O)C3CCOCC3)cc2OC[C@@H](C)N(C(=O)C2CCOCC2)C[C@H]1C`, the cytotoxicity call with HSkMC and in the assay on HepG2 was “inactive” throughout. Further, the growth inhibition call with S. aureus RN4220 was “inactive”.
In the case of `O=C(C[C@H]1C=C[C@H](NC(=O)C2CCC2)[C@@H](CO)O1)NCCCN1CCOCC1`, the cytotoxicity call with HSkMC and in the assay on HepG2 was “inactive” each time. For the same compound, the growth inhibition call with S. aureus RN4220 is “inactive”.
As to `COCCOC(=O)N1C(=O)[C@@]2(c3cc(C#Cc4ccc(OC)cc4)ccc31)[C@H](c1ccc(O)cc1)N1[C@H](c3ccccc3)[C@H](c3ccccc3)OC(=O)[C@H]1[C@@H]2C(=O)N1CCCCCCC1`, in the assay on HSkMC, the cytotoxicity call was “inactive”. In the assay on HepG2, the cytotoxicity call is “active”. The growth inhibition call in the assay with S. aureus RN4220 is “inactive”.
In the case of `CCc1nc2ccc(C(=O)NCc3ccccc3OC)cn2c1N(CC)Cc1cccc(Br)c1`, the cytotoxicity call in the assay with HSkMC and in the assay with HepG2 was “inactive” in each case. Further, the growth inhibition call with S. aureus RN4220 is “inactive”.
Take `C[C@@H]1CN([C@@H](C)CO)C(=O)c2cc(NS(=O)(=O)c3ccccc3)ccc2O[C@@H]1CN(C)CC1CC1`: the cytotoxicity call with HSkMC and with HepG2 was “inactive” throughout. Further, in the assay on S. aureus RN4220, the growth inhibition call is “inactive”.
With `OCC(O)C(O)C(O)C(O)CO` (stereo unspecified), the cytotoxicity call with HSkMC and in the assay on HepG2 was “inactive” in each case. For the same compound, the growth inhibition call in the assay with S. aureus RN4220 was “inactive”.
Consider `C[C@@H]1CN([C@H](C)CO)C(=O)Cc2cc(NS(=O)(=O)c3ccc(F)cc3)ccc2O[C@H]1CN(C)S(=O)(=O)c1cn(C)cn1`, for which the cytotoxicity call in the assay on HSkMC and in the assay with HepG2 was “inactive” throughout. The growth inhibition call in the assay on S. aureus RN4220 was “inactive”.
For the compound `C[C@@H]1CN([C@@H](C)CO)C(=O)c2cc(NC(=O)Nc3ccc4c(c3)OCO4)ccc2O[C@@H](C)CCCCO[C@H]1CN(C)C(=O)Cc1ccccc1`, the cytotoxicity call in the assay with HSkMC and with HepG2 was “inactive” in each case. Also, in the assay with S. aureus RN4220, the growth inhibition call was “inactive”.
In the case of `COc1ccc(S(=O)(=O)N[C@H]2C=C[C@@H](CC(=O)N3CCC(Cc4ccccc4)CC3)O[C@H]2CO)cc1`, the cytotoxicity call in the assay on HSkMC and in the assay on HepG2 was “inactive” throughout. Further, the growth inhibition call in the assay on S. aureus RN4220 was “inactive”.
Take `C[C@@H]1CN([C@H](C)CO)C(=O)Cc2cc(NC(=O)CCCCCC(=O)Nc3ccccc3N)ccc2O[C@@H]1CN(C)Cc1ccc(C(F)(F)F)cc1`: the cytotoxicity call with HSkMC and with HepG2 was “active” in each case. For the same compound, the growth inhibition call in the assay on S. aureus RN4220 is “inactive”.
As for `NNC(=O)CS(=O)(=O)c1ccc(C(F)(F)F)cn1`, the cytotoxicity call in the assay with HSkMC and with HepG2 was “inactive” in each case. For the same compound, the growth inhibition call in the assay with S. aureus RN4220 is “inactive”.
`C[C@@H]1CN([C@H](C)CO)C(=O)c2cc(NC(=O)c3ccccc3)ccc2O[C@@H](C)CCCCO[C@H]1CN(C)C(=O)Nc1ccc2c(c1)OCO2`: the cytotoxicity call in the assay with HSkMC and in the assay with HepG2 was “inactive” each time. Besides, the growth inhibition call in the assay on S. aureus RN4220 was “inactive”.
For the compound `O=C(C[C@@H]1CC=CCCC(=O)OC[C@@H](Cc2c[nH]c3ccccc23)NC1=O)N[C@H](CO)Cc1ccccc1`, the cytotoxicity call in the assay with HSkMC and with HepG2 was “inactive” throughout. Moreover, the growth inhibition call with S. aureus RN4220 is “inactive”.
Take `C[C@H](CO)N1C[C@H](C)[C@@H](CN(C)C(=O)c2ccncc2)OCCCC[C@H](C)Oc2ccc(NC(=O)NC3CCCCC3)cc2C1=O`: the cytotoxicity call in the assay on HSkMC and in the assay with HepG2 was “inactive” in each case. For the same compound, the growth inhibition call with S. aureus RN4220 was “inactive”.
Take `O=C(C[C@@H]1C[C@H]2c3cc(NS(=O)(=O)c4ccc(F)cc4)ccc3O[C@H]2[C@@H](CO)O1)N1CCOCC1`: the cytotoxicity call in the assay on HSkMC (human skeletal muscle cells) and with HepG2 was “inactive” in each case. The growth inhibition call in the assay on S. aureus RN4220 was “inactive”.
For the compound `O=C(C[C@@H]1CC[C@H]2[C@@H](COC[C@H](O)CN2Cc2ccccc2F)O1)N[C@@H]1CCN(Cc2ccccc2)C1`, the cytotoxicity call in the assay with HSkMC and with HepG2 was “inactive” throughout. For the same compound, the growth inhibition call in the assay with S. aureus RN4220 was “inactive”.
Turning to `Cc1ccc(S(=O)(=O)Nc2ccc3c(c2)C(=O)N([C@H](C)CO)C[C@@H](C)[C@H](CN(C)Cc2ccncc2)OCCCC[C@H](C)O3)cc1`, the cytotoxicity call in the assay with HSkMC and in the assay with HepG2 was “inactive” throughout. For the same compound, the growth inhibition call in the assay on S. aureus RN4220 was “inactive”.
On to `COCCN1CCN(C)C2(CCN(C(=O)c3csnn3)CC2)C1=O`, for which the cytotoxicity call with HSkMC and in the assay on HepG2 was “inactive” throughout. Also, the growth inhibition call in the assay with S. aureus RN4220 was “inactive”.
For `COC(=O)C(CC#Cc1ccc2c(c1)[C@]1(C(=O)N2)[C@H](C(=O)N2CCc3cc(OC)c(OC)cc3C2)[C@H]2C(=O)O[C@H](c3ccccc3)[C@H](c3ccccc3)N2[C@@H]1c1ccc(O)cc1)C(=O)OC`, the cytotoxicity call in the assay with HSkMC and in the assay on HepG2 was “inactive” each time. Moreover, in the assay on S. aureus RN4220, the growth inhibition call is “inactive”.
